The target in assay [1] is T1, human IL-15 (human, UniProt P40933 fragment).
T1 construct: also called Premium grade IL-15; GMP grade human IL-15
Briefly: SPR, variant (additional production) captured on immobilised PD1, IL-15 analyte, single-cycle kinetics, 1:1 fit. A general note: In SPR one partner is held on a chip, and binding of the other changes the refractive index at the surface.

In assay [2] the target is T1, human IL-15. Briefly: SPR, variant (additional production) captured on anti-human Fc, IL-15 analyte, single-cycle kinetics, 1:1 fit.
T1 sequence (P40933 49-162 limits assumed): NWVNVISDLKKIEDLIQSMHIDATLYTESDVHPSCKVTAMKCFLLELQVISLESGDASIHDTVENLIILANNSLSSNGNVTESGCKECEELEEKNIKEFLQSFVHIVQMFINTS
Assay [3] concerns the target T1, human IL-15. In words: SPR, variant captured on anti-human Fc, IL-15 analyte, single-cycle kinetics, 1:1 fit. On the procedure: (§1) EDC: 1-ethyl-3-(3-dimethylaminopropyl) carbodiimide hydrochloride; NHS: N-Hydroxysuccinimide; SPR: surface plasmon resonance; EDTA: ethylenediaminetetraacetic acid SPR Supplies Series S Sensor Chip CM5, Biacore amine coupling kit (NHS, EDC and 1 M ethanolamine), and 10 mM sodium acetate buffers were purchased from Cytiva Life Sciences (Marlborough, MA). […] PBS running buffer with 1% Tween20 (PBST) was purchased from Teknova Inc. (Hollister, Calif.). Goat polyclonal anti-human Fc antibody was purchased from Jackson Immuno Research Laboratories Inc. (West Grove, Pa.). EDTA was purchased from Bioshop (Burlington, ON). All SPR assays were carried out using a Biacore T200 Surface Plasmon Resonance instrument (Cytiva Life Sciences, (Marlborough, MA)) with PBST running buffer (with 0.5 M EDTA stock solution added to 3.4 mM final concentration) at a temperature of 25° C. The anti-human Fc capture surface was generated using a Series S Sensor Chip CM5 using the default parameters under the Immobilization Wizard in the Biacore T200 control software which was set to target 3000 resonance units (RUs).
The first flow cell was left empty to use as a blank control. […] The captured antibody surfaces were regenerated twice by 10 mM Glycine pH1.5 for 30 seconds at 30 μL/min. Buffer injections were performed for each analyte injection to be used for referencing.

Assay [4] addresses T2, human PD-1 (human, UniProt Q15116 fragment, limits assumed).
T2 construct: Recombinant protein used in SPR as analyte or amine-coupled ligand; also called PD1 antigen
In words: SPR, variant (additional production) captured on anti-human Fc, PD1 analyte.

Assay [5] has as its target T2, human PD-1. In words: SPR, variant captured on protein A, PD1 analyte (impaired accessibility on chip noted). On the procedure:
as §1, with “The anti-human Fc capture surface was generated using a Series S Sensor Chip CM5 using the default parameters under the Immobilization Wizard in the Biacore T200 control software which was set to target 3000 resonance units (RUs).” left out
The first flow cell was left empty to use as a blank control. […] Buffer injections were performed for each analyte injection to be used for referencing.

Assay [6] deals with T2, human PD-1. Briefly: SPR, variant as analyte over immobilised PD1 (avidity possible).
T2 sequence (Q15116 25-167 limits assumed): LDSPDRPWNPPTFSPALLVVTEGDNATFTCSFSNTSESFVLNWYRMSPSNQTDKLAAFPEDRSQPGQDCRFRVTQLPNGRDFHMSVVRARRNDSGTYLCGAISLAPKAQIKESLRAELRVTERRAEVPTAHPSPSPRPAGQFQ

B1: RV20 (bispecific antibody, human IgG1, lambda)
heavy: QVQLVQSGAEVKKPGASVKVSCKASGYSFSSFGISWVRQAPGQGLEWLGWISAFNGYTKYAQKFQDRVTMTTDTSTSTAYMELRSLRSDDTAVYYCARDPAAWPLQQSLAWFDPWGQGTMVTVSSASTKGPSVFPLAPSSKSTSGGTAALGCLVKDYFPEPVTVSWNSGALTSGVHTFPAVLQSSGLYSLSSVVTVPSSSLGTQTYICNVNHKPSNTKVDKKV[sequence of human IgG1 Fc with changes not given]GGGGSGGGGSGGGGSGGGGSEIVLTQSPATLSLSPGERATLSCRASKGVSTSGYSYLHWYQQKPGQAPRLLIYLASYLESGVPARFSGSGSGTDFTLTISSLEPEDFAVYYCQHSRDLPLTFGCGTKVEIKGGSGGGSGGGSGGGSGGGSGQVQLVQSGVEVKKPGASVKVSCKASGYTFTNYYMYWVRQAPGQCLEWMGGINPSNGGTNFNEKFKNRVTLTTDSSTTTAYMELKSLQFDDTAVYYCARRDYRFDMGFDYWGQGTTVTVSS
light: QSVLTQPPSASGTPGQRVTISCSGSTSNLKRNYVYWYQQLPGTAPKLLIYRDRRRPSGVPDRFSGSKSGTSASLAISGLRSEDEADYYCAWYDRELSEWVFGGGTKLTVLQPKAAPSVTLFPPSSEELQANKATLVCLISDFYPGAVTVAWKADSSPVKAGVETTTPSKQSNNKYAASSYLSLTPEQWKSHRSYSCQVTHEGSTVEKTVAPTECS
notes: IgG1 LALAPG; Two productions tested: RV20 (57.7 % main peak) and RV20* (96.5 %); also called RV20* (additional production)
Regarding B1, the Kd in assay [1] was found to be 0.169 nM; in assay [2] it was 0.0531 nM; in assay [3], 0.0519 nM; in assay [4] it was 3.99 nM; in assay [5], 269 nM; in assay [6], 17.2 nM.

The values above are taken from patent US12692305 (REVERB THERAPEUTICS, dated 2026).
